Measurements: US10774064B2 (Cadent Therapeutics, Inc., priority 2016, dated 2020)
For at least one compound, name, drawing or mass did not settle the structure.

Biological target: T1, small-conductance Ca2+-activated K+ channels (SK channels, subtype 2) (Homo sapiens, UniProt Q9H2S1)
T1 construct: expressed in transfected cells; host or cells: HEK293
Assay: whole-cell patch-clamp of ionic current through SK2 channels in HEK293 cells (SC100)
Assay type: cell-based
Conditions: concentration that increases the basal current by 100%; HEK293 cells expressing SK2 channels
Procedure: The biological activity was determined as follows. The ionic current through small-conductance Ca^2+-activated K^+ channels (SK channels, subtype 2) was measured using the whole-cell configuration of the patch-clamp technique in a patch-clamp set-up using HEK293 tissue culture cells expressing SK2 channels as described in Hougaard et al., British Journal of Pharmacology 151, 655-665, May 8, 2007, the entire teachings of which are incorporated herein by reference. In one aspect, a compound is defined to be an SK PAM if the compound increases current in this assay, for example, if the SC100 value of the compound is less than or equal to 10 μM as determined by this assay. The SC100 value is defined to be the concentration of compound that increases the basal current by 100%.

| SMILES | SC100 |
| --- | --- |
| COC(=O)N1CC(Oc2cc(NC3CCC(F)(F)CC3)nc(-n3ccc(C)n3)n2)C1 [Compound 205, 3-((6-((4,4-difluorocyclohexyl)amino)-2-(3-methyl-1H-pyrazol-1-yl)pyrimidin-4-yl)oxy)azetidine-1-carboxylate] | ++ (++ means 200 nM-1000 nM) |

Same assay, conditions: whole-cell patch-clamp, HEK293 cells expressing SK2 channels; concentration that increases the basal current by 100%

| SMILES | SC100 (μM) |
| --- | --- |
| Cc1cc(NC2CCC(F)(F)CC2)nc(-n2nc(Br)cc2C)n1 [NSSy6128] | ++ (++ means 200 nM-1000 nM) |
| COC(=O)NCC(CCl)Oc1cc(NC2CCC(F)(F)CC2)nc(-c2nc(C)cs2)n1 (stereo not shown) [NSSy6106, methyl (3-chloro-2-((6-((4,4-difluorocyclohexyl)amino)-2-(4-methylthiazol-2-yl)pyrimidin-4-yl)oxy)propyl)carbamate] | + (+ means >1 uM) |
| CC(=O)N1CCN(c2cc(-n3ccc(Br)n3)nc(NC3CCC(F)(F)CC3)n2)CC1 [NSSy6919] | +++ (+++ means <200 nM) |
| Cc1csc(-c2nc(NC3CCC(F)(F)CC3)cc(OCc3cnc(Cl)o3)n2)n1 [IN11140-052-P1] | +++ (+++ means <200 nM) |
| Cc1cc(C)n(-c2nc(NC3CCC(F)(F)CC3)nc(C)c2Br)n1 [NSSy6678, 5-bromo-N-(4,4-difluorocyclohexyl)-4-(3,5-dimethyl-1H-pyrazol-1-yl)-6-methylpyrimidin-2-amine] | + (+ means >1 uM) |
| Cc1cc(-n2nc(Br)cc2C)nc(NC2CCC(F)(F)CC2)n1 [IN10964-041-P1] | ++ (++ means 200 nM-1000 nM) |
| COC(=O)N1CC(Oc2cc(NC3CCC(F)(F)CC3)nc(-n3ccc(Cl)n3)n2)C1 [NSSy6113] | +++ (+++ means <200 nM) |
| COC(=O)N1CC(Oc2cc(NC3CCC(F)(F)CC3)nc(-n3ccc(Br)n3)n2)C1 [NSSy6101] | +++ (+++ means <200 nM) |
| Cc1cc(NC2CCC(F)(F)CC2)nc(-n2ccc(Br)n2)n1 [IN11218-034-P1, 2-(3-bromo-1H-pyrazol-1-yl)-N-(4,4-difluorocyclohexyl)-6-methylpyrimidin-4-amine] | ++ (++ means 200 nM-1000 nM) |
| COC(=O)N1CC(Oc2nc(-c3nccs3)nc(NC3CCCCC3)c2Br)C1 [NSSy6170, methyl 3-((5-bromo-6-(cyclohexylamino)-2-(thiazol-2-yl)pyrimidin-4-yl)oxy)azetidine-1-carboxylate] | + (+ means >1 uM) |
| COc1nc(-c2nc(C)cs2)nc(NC2CCC(F)(F)CC2)c1Cl [IN11111-024-P1, 5-chloro-N-(4,4-difluorocyclohexyl)-6-methoxy-2-(4-methylthiazol-2-yl)pyrimidin-4-amine] | ++ (++ means 200 nM-1000 nM) |
| Cc1ccn(-c2cc(COc3cnc(Br)nc3)cc(NC3CCC(F)(F)CC3)n2)n1 [NSSy5869] | +++ (+++ means <200 nM) |
| Cc1nc(NC2CCC(F)(F)CC2)nc(-n2ccc(C(F)(F)F)n2)c1Br [NSSy6604, 5-bromo-N-(4,4-difluorocyclohexyl)-4-methyl-6-(3-(trifluoromethyl)-1H-pyrazol-1-yl)pyrimidin-2-amine] | + (+ means >1 uM) |
| Cc1ccn(-c2nc(NC3CCC(F)(F)CC3)cc(N(CCO)CCO)n2)n1 [IN11216-078-P1] | + (+ means >1 uM) |
| Cc1ccn(-c2nc(NC3CCC(F)(F)CC3)cc(N3CCOC(=O)C3)n2)n1 [IN11238-088-P1] | ++ (++ means 200 nM-1000 nM) |
